Source: PubChem BioAssay AID686978 (National Center for Advancing Translational Sciences (NCATS), 2013)
Where “and” joins values, the source holds several entries; their conditions need not be identical. Equal values may be shown once. About 64,000 (15%) of roughly 420,000 compounds were called active. The inconclusive results got no clear call from the source; some entries with a clear call stand among them for comparison. Calls follow the shape of the dose curve; as a rule, active = well fitted inhibition curve with a large enough effect; inconclusive = small, poorly fitted or top-dose-only effect; inactive = flat fitted curve, though single readings scatter. Potencies of inconclusive entries are left out as doubtful fits. Some structures have more than one record in an assay (separate samples or runs), and their calls can disagree.

Experiment: qHTS for Inhibitors of human tyrosyl-DNA phosphodiesterase 1 (TDP1): qHTS in cells in absence of CPT; also: nearly all actives have a fitted effect of over 55% in size
Settings: DT40 Tdp1-/- hTDP1 cells, no CPT, ATP luminescence, 48 h; activity change, negative = growth inhibition: at 46.2 µM (top of the series) unless noted
In short: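 Luminescent ATP content (CellTiter-Glo) served as the growth readout. Knockout chicken DT40 cells expressing human TDP1 were exposed to compounds without camptothecin for a minimum 48 hr at 37 °C.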
% is scaled to controls: 0 for no effect and ±100 for the full control effect; potency is read from the fitted curve at half-maximal effect; tags tell the direction and shape of the fitted curve.

Structure (SMILES) | Potency | activity change, negative = growth inhibition
CCN1CCN(Cc2c(O)ccc3c2O/C(=C\C=C\c2ccccc2)C3=O)CC1 | active: 11.6 µM | –
CCOC(=O)C1CCN(CC(O)COCc2ccccc2)CC1 (stereo not given) | – | inactive: -6.3%
CCOc1ccc(CN(C)C(=O)CNC(=O)C2CCCCC2)cc1OC | – | inactive: -9.97%
CCCCN(CCCC)Cc1cc(=O)oc2cc(OC)c(Cl)cc12 | inconclusive [inhibitor, partial curve] | –
O=C1c2ccccc2C(=O)N1c1ncc(Cc2ccc(Cl)cc2)s1 | inconclusive [inhibitor, partial curve, poor fit] | –
Cc1ccc(N2C(S)=C(C#N)C(=O)NC2c2cccs2)cc1 (stereo not given) | active: 13 µM | –
COc1ccc(Cl)cc1NC(=O)CN1C(=O)NC(C)(Cc2ccc(OC)c(OC)c2)C1=O (stereo not given) | inconclusive [inhibitor, single point] | –
CCCc1cc(=O)oc2c(C)c(OS(C)(=O)=O)ccc12 | inconclusive [inhibitor, single point] | –
O=C1Cc2cc(S(=O)(=O)N3CCNCC3)ccc2N1 | – | inactive: -17.1%
CC1=Nc2ccccc2N=C(NC(=O)CSc2nnnn2-c2ccccc2)C1c1ccccc1 (stereo not given) | active: 29.1 µM | –
COc1ccc(OCc2nnc(NC(=O)Nc3ccc(F)cc3)s2)cc1 | – | inconclusive: -30.5% [inhibitor]
COc1ccc2[nH]cc(CCNc3nc(-c4ccoc4)nc4ccccc34)c2c1 | inconclusive [inhibitor, single point] | –
O=C(CN1C(=O)COc2ccc(S(=O)(=O)N3CCCCC3)cc21)NCc1ccc(F)cc1 | inconclusive [inhibitor, single point] | –
CC(C)(C)C1CCC(=NNC(=S)NCc2ccccc2)CC1 (stereo not given) | inconclusive [inhibitor, single point] | –
COc1cc2c(cc1OC)-c1cc(NCc3ccccn3)nc(=O)n1CC2 | inconclusive [inhibitor, partial curve, poor fit] | –
CC(C)(C)NC(=O)NC(=O)COC(=O)C1c2ccccc2Oc2ccccc21 | – | inactive: -11.4%
CC(NC(=O)C1CCN(C(=O)Nc2ccccc2)CC1)c1ccccc1Cl (stereo not given) | inconclusive [inhibitor, single point] | –
CC(=O)Nc1cccc(-c2ccnc3c2CC(C)(C(=O)NCc2cccc(Cl)c2)O3)c1 (stereo not given) | active: 4.11 µM | –
CCCCn1c(SCC(=O)c2ccc(O)c(O)c2)nc2ccsc2c1=O | active: 23.1 µM | –
Cc1ccccc1OCC(O)Cn1c(Br)nc2c1c(=O)[nH]c(=O)n2C (stereo not given) | inconclusive [inhibitor, single point] | –
CC(=O)Nc1c2c(nn1-c1ccccc1C)CS(=O)C2 (stereo not given) | – | inactive: 7.47%
O=C(Nc1ccccc1)c1cc(S(=O)(=O)N2CCSCC2)ccc1Cl | inconclusive [inhibitor, partial curve, poor fit] | –
O=C(COC(=O)Cc1c(Cl)cccc1Cl)Nc1ccccc1-c1ccccc1 | inconclusive [inhibitor, single point] | –
CCc1ccc(-c2cc(C)no2)cc1S(=O)(=O)N1CCN(c2ccccc2)CC1 | inconclusive [inhibitor, full curve] | –

Structure (SMILES) | Potency | activity change, negative = growth inhibition
N#Cc1ccccc1Sc1ccccc1C(=O)Nc1ccc(Br)cc1 | inconclusive [inhibitor, single point] | –
OCC1(CC2CCCCO2)CCN(Cc2ccccc2-c2ccco2)CC1 (stereo not given) | – | inactive: -19.4%
c1ccc(COc2ncnc3c2ncn3CCCN2CCN(c3ncccn3)CC2)cc1 | inconclusive [inhibitor, single point] | –
Cc1ccccc1-c1nn(-c2ccc(F)cc2F)cc1CNCCCO | inconclusive [inhibitor, single point] | –
Cc1cccc(NCC(=O)N/N=C\c2cccc(Oc3ccccc3)c2)c1 | inconclusive [inhibitor, single point] | –
O=C(Nc1ccc2nc3n(c(=O)c2c1)CCCC3)c1cccc([N+](=O)[O-])c1 | – | inactive: -12.5%
O=C(NNC(=O)c1ccc([N+](=O)[O-])o1)c1ccccc1 | inconclusive [inhibitor, single point] | –
Cc1ccc(SCCNC(=O)c2ccccc2)cc1 | – | inactive: -22.1%
CC(=O)Nc1ccc2nc(NC(=O)c3ccco3)sc2c1 | inconclusive [inhibitor, partial curve, poor fit] | –
Cc1ccc(C2CN(c3ccccc3)CC2C(=O)c2ccc(F)cc2)cc1 (stereo not given) | inconclusive [inhibitor, single point] | –
CN(Cc1ccc(Cl)cc1)C(C(=O)NC1CCCCC1)c1ccnc2ccccc12 (stereo not given) | inconclusive [inhibitor, single point] | –
O=C(Nc1ccncc1)c1ccccc1[N+](=O)[O-] | – | inconclusive: -36.6% [inhibitor]
CCOc1ccccc1Nc1nc2ccccc2[nH]1 | inconclusive [inhibitor, single point] | –
CCOc1cc(C2C(C(=O)OC)=C(C)NC3=C2C(=O)c2ccccc23)ccc1O (stereo not given) | inconclusive [inhibitor, partial curve, poor fit] | –
CC1(C)O[C@H]2[C@@H](O1)[C@@H](C(=O)Nc1ccccc1O)O[C@@H]1OC(C)(C)O[C@@H]12 | – | inactive: -9.9%
O=C(Nc1ccc(F)cc1)c1cc(S(=O)(=O)N2CCOCC2)cs1 | inconclusive [inhibitor, single point] | –
CCN1CCN(c2cc(C)c3cc(NC(=S)NCc4cccs4)ccc3n2)CC1 | active: 20.6 µM | –
CCS(=O)(=O)C1=NSC2=NC(=O)/C(=C\c3ccc(OS(=O)(=O)c4ccccc4)c(OC)c3)C(=N)N21 | inconclusive [inhibitor, partial curve, poor fit] | –
CCC(CC)C(=O)Nc1cccc(-c2nc3cccnc3s2)c1C | inconclusive [inhibitor, single point] | –
COc1ccccc1-c1nc(S(=O)(=O)c2ccc(Cl)cc2)c(N2CCCCCC2)o1 | active: 16.4 µM | –
COc1ccc(-c2nc3n(n2)C(=O)CC(c2ccco2)S3)cc1 (stereo not given) | inconclusive [inhibitor, single point] | –
CCOc1ccc(CNC(=O)C2CCCN(c3nc4c(C)cc(C)cc4s3)C2)cc1 (stereo not given) | inconclusive [inhibitor, single point] | –
COc1ccc2oc(=O)cc(CN(C)Cc3ccccc3)c2c1 | inconclusive [inhibitor, single point] | –
COc1ccc(-n2nc3ccc(NC(=O)c4cc5ccccc5o4)cc3n2)cc1Cl | inconclusive [inhibitor, single point] | –

Structure (SMILES) | Potency | activity change, negative = growth inhibition
FC(F)(F)c1ccccc1-n1ccnc1 | inactive and active: 16.4 µM | –
Cc1cc2nc(-c3ccc(SCC(=O)Nc4nccs4)nc3)[nH]c2cc1C | active: 16.4 µM | –
O=C(/C=C/c1cccs1)c1ccc(NC(=O)c2ccccc2F)cc1 | active: 11.6 µM | –
Cc1nn(-c2ccccc2)c(Cl)c1/C=C1\SC(=S)NC1=O | inconclusive [inhibitor, partial curve] | –
COc1cc2c(cc1OC)C(c1ccccc1)NC(C)(C)C2 (stereo not given) | – | inactive: -14.2%
CCCNC(=O)c1cc(C2CCCCN2C(=O)c2ccc(OC)cc2)on1 (stereo not given) | – | inactive: -1.33%
CSc1ncnc2c1ncn2CCCNCC1CCCCC1 | – | inconclusive: -32.5% [inhibitor]
CCCCNC(=O)CCCN1C(=O)c2cccnc2Sc2ccccc21 | – | inactive: -15.5%
CCc1[nH]nc(C(=O)NC2CCCN(Cc3ccccc3F)C2)c1C (stereo not given) | – | inactive: -8.22%
CCc1ccccc1NC(=O)CN(c1ccc(OC)cc1OC)S(=O)(=O)c1ccccc1[N+](=O)[O-] | inconclusive [inhibitor, single point] | –
Cc1ccc(C(C)C)c(OCC(=O)Nc2c(C(=O)c3ccccc3)oc3ccccc23)c1 | inconclusive [inhibitor, single point] | –
O=C(c1ccc(N2CCCC2)c([N+](=O)[O-])c1)N1CCc2ccccc2C1 | active: 29.1 µM | –
COC(=O)C1=C(C)N(Cc2ccccc2)C(=NCCCCO)N[C@H]1c1cccc(C(F)(F)F)c1 | inconclusive [inhibitor, single point] | –
Cc1cccc(C)c1NC(=O)Cn1nnc(-c2ccc(CN3CCC(C)CC3)cc2)n1 | – | inactive: -22.8%
CCNC(=O)/C(C#N)=C/c1c(N2CCN(c3ccccc3)CC2)nc2c(C)cccn2c1=O | inconclusive [inhibitor, single point] | –
COc1ccc(NC(=O)c2ccco2)cc1N | inconclusive [inhibitor, partial curve] | –
O=C(C1CCN(S(=O)(=O)c2ccccc2)CC1)N1CCN(Cc2ccccc2)CC1 | inconclusive [inhibitor, single point] | –
CCc1nc2ccc(C(=O)NC3CCN(C)CC3)cn2c1N(C)CCC(C)C | inconclusive [inhibitor, single point] | –
COc1ccc(Cl)cc1Nc1cc(C)nc2ncnn12 | – | inactive: -21.7%
Cc1ccc(CN2C(=O)c3ccccc3C2C(=O)NC2CCCCCC2)cc1 (stereo not given) | inconclusive [inhibitor, single point] | –
O=C(NCc1ccco1)c1cc(-c2ccco2)on1 | inconclusive [inhibitor, partial curve, poor fit] | –
CCOC(=O)c1sc2ncnc(N3CCN(C)CC3)c2c1C | inconclusive [inhibitor, single point] | –
